Data published in the supplement of paper PMC9446081.
Among all 39,000 compounds or so, about 220 (0.56%) showed activity. The list shows a part of the results.

tested on: Escherichia coli K-12 BW25113; assay: relative growth (OD600 normalised to plate interquartile mean) (fraction); higher = less growth inhibition, active = 0.2 or less; conditions: 50 µM; LB; incubation time: overnight (16-24 h)
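Note: static incubation at 37 °C against the wild-type strain, values averaged over two biological replicates.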

Compound | relative growth
C[C@H]1CN([C@@H](C)CO)S(=O)(=O)c2ccc(C#CC3(O)CCCC3)cc2O[C@H]1CN(C)C(=O)c1ccccc1 | inactive: 1
CO[C@H](CN(C)S(=O)(=O)c1cn(C)cn1)[C@@H](C)CN(C(=O)Nc1ccc(C(F)(F)F)cc1)[C@H](C)CO | inactive: 0.725
O=C(Nc1nccs1)[C@@H]1[C@@H](CO)[C@@H]2Cn3c(cccc3=O)[C@H]1N2C(=O)C1CC1 | inactive: 1.03
C[C@H]1CCCCO[C@H](CN(C)S(=O)(=O)c2cccs2)[C@@H](C)CN([C@@H](C)CO)C(=O)c2cc(NC(=O)Nc3cccc4ccccc34)ccc2O1 | inactive: 1.02
C[C@@H]1CN([C@H](C)CO)S(=O)(=O)c2ccc(C#Cc3ccccc3F)cc2O[C@H]1CN(C)C(=O)c1ccc2c(c1)OCO2 | inactive: 1.04
C[C@H]1CN([C@@H](C)CO)C(=O)c2cc(C#Cc3ccccc3)cnc2O[C@H]1CN(C)C(=O)CCN1CCCCC1 | inactive: 0.97
COc1ccc(S(=O)(=O)N(C)C[C@@H]2OCCCC[C@H](C)Oc3ccc(NS(C)(=O)=O)cc3C(=O)N([C@H](C)CO)C[C@H]2C)cc1 | inactive: 1
C[C@H](CO)N1C[C@H](C)[C@H](CN(C)S(=O)(=O)c2cn(C)cn2)Oc2ccc(NC(=O)CCCN(C)C)cc2CC1=O | inactive: 0.994
C[C@@H]1CCCCO[C@H](CN(C)S(C)(=O)=O)[C@H](C)CN([C@H](C)CO)C(=O)c2cc(N(C)C)ccc2O1 | inactive: 0.984
NC(=O)CCN1CCn2c1nc1ccccc12 | inactive: 0.995
C[C@@H]1CN([C@@H](C)CO)C(=O)Cc2cc(NC(=O)Nc3ccc(C(F)(F)F)cc3)ccc2O[C@@H]1CN(C)Cc1ccccc1 | inactive: 1.07
C[C@H]1CN([C@@H](C)CO)C(=O)c2cc(C#Cc3ccccc3)cnc2O[C@@H]1CN(C)C(=O)CCN1CCCCC1 | inactive: 1.02
CCN(CC)CCCC(C)Nc1ccnc2cc(Cl)ccc12.O=P(O)(O)O.O=P(O)(O)O (stereo not drawn) | inactive: 1.14
CO[C@@H]1CN(C)C(=O)c2ccc(NC(=O)c3ccccc3)cc2OC[C@H](C)N(C(=O)CN(C)C)C[C@H]1C | inactive: 0.908
C[C@@H]1CN([C@H](C)CO)C(=O)Cc2cc(NS(=O)(=O)c3cn(C)cn3)ccc2O[C@@H]1CN(C)S(=O)(=O)c1ccc(F)cc1 | inactive: 1.02
C[C@@H]1CN([C@@H](C)CO)C(=O)c2cccc(NS(=O)(=O)c3ccc(F)cc3)c2O[C@H]1CN(C)S(=O)(=O)c1cn(C)cn1 | inactive: 0.99
COc1ccc(S(=O)(=O)N(C)C[C@H]2Oc3ccc(NC(=O)C4CC4)cc3CC(=O)N([C@H](C)CO)C[C@H]2C)cc1 | inactive: 0.977
COc1ccc2c3c(n(c2c1)C)[C@H](CO)N(C[C@]13CN(C1)C(=O)c1ccncc1)C(=O)C1CCOCC1 | inactive: 0.961
C[C@@H]1CN([C@@H](C)CO)C(=O)Cc2cc(NS(=O)(=O)c3ccc(F)cc3)ccc2O[C@@H]1CN(C)S(=O)(=O)c1ccccc1 | inactive: 1.02
COC(=O)[C@@H](NC(=O)Cn1cc(COc2ccccc2/C=C(C)/C=C/C(=O)NO)nn1)c1ccccc1 | inactive: 0.913

Compound | relative growth
C[C@@H]1CN([C@@H](C)CO)C(=O)c2cc(NS(=O)(=O)c3ccccc3)ccc2O[C@@H]1CN(C)C(=O)Nc1cccc2ccccc12 | inactive: 1.03
CO[C@H](CN(C)C(=O)c1ccccc1F)[C@@H](C)CN([C@H](C)CO)S(=O)(=O)c1ccc(Cl)cc1 | inactive: 0.973
C[C@@H]1CN([C@@H](C)CO)C(=O)c2cc(C#Cc3ccccn3)cnc2O[C@@H]1CN(C)C(=O)CCN1CCCCC1 | inactive: 0.993
COCC#Cc1cnc2c(c1)C(=O)N([C@@H](C)CO)C[C@@H](C)[C@@H](CN(C)C(=O)c1cnccn1)O2 | inactive: 0.999
C[C@@H]1CN([C@@H](C)CO)C(=O)Cc2cc(NC(=O)CCCCCC(=O)Nc3ccccc3N)ccc2O[C@@H]1CN(C)Cc1ccc(-c2ccccc2)cc1 | inactive: 0.98
C[C@H]1CN([C@@H](C)CO)C(=O)c2cc(C#CC3CCCC3)cnc2O[C@@H]1CN(C)S(=O)(=O)c1cccc(F)c1 | inactive: 0.993
C[C@H](CO)N1C[C@H](C)[C@H](CN(C)Cc2ccc3c(c2)OCO3)OCCCC[C@H](C)Oc2ccc(NC(=O)NC3CCCCC3)cc2C1=O | inactive: 1.02
CC(C)NC(=O)Nc1ccc2c(c1)C(=O)N([C@@H](C)CO)C[C@H](C)[C@@H](CN(C)C(=O)Nc1ccc3c(c1)OCO3)O2 | inactive: 0.994
C[C@@H]1CN([C@H](C)CO)C(=O)c2cc(NC(=O)C3CCCCC3)ccc2O[C@@H](C)CCCCO[C@H]1CN(C)Cc1ccc2c(c1)OCO2 | inactive: 0.948
C[C@H](CO)N1C[C@H](C)[C@@H](CN(C)Cc2ccc(-c3ccccc3)cc2)Oc2ccc(NC(=O)C3CCCCC3)cc2C1=O | inactive: 0.952
COc1ccc(S(=O)(=O)Nc2cccc3c2O[C@H](CN(C)CC2CC2)[C@H](C)CN([C@H](C)CO)C3=O)cc1 | inactive: 1
Cc1noc(C)c1S(=O)(=O)Nc1ccc2c(c1)C(=O)N([C@H](C)CO)C[C@H](C)[C@H](CN(C)Cc1ccccc1)O2 | inactive: 0.976
Cl.[LiH] | inactive: 1.01
C[C@H]1CN([C@@H](C)CO)C(=O)c2cc(C#CCN(C)C)cnc2O[C@H]1CN(C)Cc1cccc(C(=O)O)c1 | inactive: 0.997
Cn1cnc(S(=O)(=O)N2C[C@H](O)COC[C@@H]3O[C@H](CC(=O)N4CCN(c5ccccc5)CC4)CC[C@H]32)c1 | inactive: 0.988
C[C@H]1CN([C@@H](C)CO)C(=O)c2cccc(NS(C)(=O)=O)c2O[C@@H]1CN(C)Cc1ccc(C(=O)Nc2ccccc2N)cc1 | inactive: 0.995
C[C@H]1CCCCO[C@H](CN(C)C(=O)CCCN(C)C)[C@@H](C)CN([C@@H](C)CO)C(=O)c2cc(N(C)C)ccc2O1 | inactive: 1
Cc1noc(C)c1S(=O)(=O)Nc1ccc2c(c1)C(=O)N([C@H](C)CO)C[C@H](C)[C@H](CN(C)Cc1ccc(C(F)(F)F)cc1)OCCCC[C@@H](C)O2 | inactive: 0.906
C[C@@H]1CN([C@H](C)CO)C(=O)c2cc(N(C)C)ccc2O[C@@H](C)CCCCO[C@@H]1CN(C)S(=O)(=O)c1cn(C)cn1 | inactive: 1.03
COc1ccc(CN(C)C[C@H]2OCCCC[C@H](C)Oc3ccc(NC(=O)C4CCCCC4)cc3C(=O)N([C@@H](C)CO)C[C@H]2C)cc1 | inactive: 0.963

Compound | relative growth
COc1ccc(S(=O)(=O)N(C)C[C@@H]2OCCCC[C@H](C)Oc3ccc(NS(=O)(=O)c4ccc(Cl)cc4)cc3C(=O)N([C@@H](C)CO)C[C@@H]2C)cc1 | inactive: 1.06
CC1(C)[C@H](C(N)=O)CC[C@@]1(C)C(=O)O | inactive: 1
C[C@@H]1CCCCO[C@@H](CN(C)CC2CCCCC2)[C@@H](C)CN([C@H](C)CO)C(=O)c2cc(NC(=O)Nc3cccc4ccccc34)ccc2O1 | inactive: 1.03
Cc1ccc(S(=O)(=O)N(C)C[C@H]2Oc3c(NS(=O)(=O)c4cn(C)cn4)cccc3C(=O)N([C@@H](C)CO)C[C@@H]2C)cc1 | inactive: 0.959
COc1ccc(S(=O)(=O)N(C)C[C@H]2Oc3c(NC(=O)c4ccncc4)cccc3C(=O)N([C@@H](C)CO)C[C@H]2C)cc1 | inactive: 0.969
C[C@H](CO)N1C[C@H](C)[C@H](CN(C)S(=O)(=O)c2ccccc2)OCCCC[C@H](C)Oc2ccc(NC(=O)Nc3ccc(F)cc3)cc2C1=O | inactive: 0.999
C[C@@H]1CCCCO[C@H](CN(C)Cc2ccccc2)[C@H](C)CN([C@H](C)CO)C(=O)c2cc(NC(=O)Nc3ccc(C(F)(F)F)cc3)ccc2O1 | inactive: 1.02
C[C@@H]1CN([C@H](C)CO)C(=O)CCCn2nncc2CO[C@H]1CN(C)C(=O)C1CC1 | inactive: 0.997
Cc1ccc(S(=O)(=O)N(C)C[C@H]2Oc3ccc(NC(=O)Nc4cccc5ccccc45)cc3CC(=O)N([C@H](C)CO)C[C@H]2C)cc1 | inactive: 1.04
C[C@@H]1CN([C@@H](C)CO)S(=O)(=O)c2ccc(-c3ccc(C(=O)N(C)C)cc3)cc2O[C@@H]1CN(C)C(=O)Cc1ccccn1 | inactive: 1.03
C[C@@H]1CCCCO[C@H](CN(C)C(=O)C2CCCCC2)[C@H](C)CN([C@H](C)CO)C(=O)c2cc(NC(=O)Nc3cccc4ccccc34)ccc2O1 | inactive: 1.03
CO[C@@H]1CN(C)C(=O)c2ccc(NC(=O)c3ccc(F)cc3)cc2OC[C@@H](C)N(C(=O)CN(C)C)C[C@@H]1C | inactive: 0.996
Cc1ccccc1S(=O)(=O)N1C[C@H](O)COC[C@H]2O[C@@H](CC(=O)NCCc3ccncc3)CC[C@@H]21 | inactive: 1.01
C[C@@H]1CCCCO[C@@H](CN(C)Cc2ccc(Cl)c(Cl)c2)[C@@H](C)CN([C@@H](C)CO)C(=O)c2cc(NC(=O)C3CCCCC3)ccc2O1 | inactive: 0.988
COCC#Cc1cnc2c(c1)C(=O)N([C@H](C)CO)C[C@H](C)[C@H](CN(C)C(=O)Nc1ccccc1OC)O2 | inactive: 1.04
CCCN(C)C[C@H]1OCCCC[C@H](C)Oc2ccc(NC(=O)Cc3ccccc3)cc2C(=O)N([C@@H](C)CO)C[C@H]1C | inactive: 1.02
C[C@H]1CCCCO[C@@H](CN(C)C(=O)NC2CCCCC2)[C@@H](C)CN([C@@H](C)CO)C(=O)c2cc(NC(=O)C3CCCCC3)ccc2O1 | inactive: 0.942
C[C@H]1CN([C@@H](C)CO)S(=O)(=O)c2ccc(Br)cc2O[C@H]1CN(C)C(=O)CCN1CCCCC1 | inactive: 1.01
